# Some of the results follow. The full chains were built here from the parent and the listed change. Inactive controls read about 0.05.
# B1: TEV protease; numbered along this chain (parent)
# chain: MGESLFKGPRDYNPISSSICHLTNESDGHTTSLYGIGFGPFIITNKHLFRRNNGTLVVQSLHGVFKVKDTTTLQQHLVDGRDMIIIRMPKDFPPFPQKLKFREPQREERICLVTTNFQTKSMSSMVSDTSCTFPSGDGIFWKHWIQTKDGQCGSPLVSTRDGFIVGIHSASNFTNTNNYFTSVPKNFMELLTNQEAQQWVSGWRLNADSVLWGGHKVFMVKPEEPFQPVKEATQL
# Variants of: B1
# Assay: raw area under fraction-flipped curve 0-4 h after induction (AUC4h, not background-subtracted), DNA-recorder readout of cleavage of the substrate (dimensionless); higher = more cleavage of the substrate by the protease variant
# Conditions: temperature: 34 °C; time window: 0-4 h after rhamnose induction
# Procedure: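 In vivo DNA recorder in E. coli TOP10(DE3) ΔrhaA at 34 °C. Each TEVp single-site mutant (parent TEVp 0) is paired with a single-site variant of the 7-mer TEVs (canonical ENLYFQ|S). The substrate sits between flexible linkers in a Bxb1-sfGFP-TEVs-SsrA fusion, so cleavage stabilises Bxb1 and speeds flipping of a recombination array, read by NGS. The value is the raw area under the fraction-flipped curve over 0-4 h after rhamnose induction (AUC4h), with ≥20 reads per time point. It is not background-subtracted; inactive controls average about 0.047.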
# 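Also: Bxb1 expression induced with 0.2% (w/v) L-rhamnose at OD600 near 0.5, cultures sampled hourly, flipped fraction per protease–substrate barcode pair counted by paired-end Illumina sequencing.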
Variant,area with substrate ENLYCQS,area with substrate ENLYDQS,area with substrate ENLYEQS,area with substrate ENLYKQS,area with substrate ENLYNQS,area with substrate ENLYTQS,area with substrate ENLYWQS,area with substrate ENLYGQS,area with substrate ENLYHQS,area with substrate ENLYIQS,area with substrate ENLYQQS,area with substrate ENLYSQS,area with substrate ENLYVQS,area with substrate ENLYYQS,area with substrate ENLYMQS,area with substrate ENLYPQS,area with substrate ENLYRQS,area with substrate ENLYLQS
D137W,0.0797,0.0569,0.0681,0.0235,0.0576,0.1,0.073,,,,,,,,,,,
G2P,0.091,0.0622,0.0682,0.0597,,,0.106,0.0621,0.0694,0.134,0.0737,0.0645,0.146,0.0469,,,,
D27I,0.095,0.0528,0.0598,,0.0561,,,,,0.122,0.0722,0.0882,0.1,,0.0481,0.0639,0.0575,
L205Q,0.0427,0.0455,,,,,0.0595,,,,,,,,0.0616,0.0247,,
F95E,0.0696,0.0519,0.054,0.0451,0.0401,0.0661,0.0379,0.0492,0.055,,,0.0494,0.0526,0.0531,0.0414,0.0263,0.0606,
F101A,0.0576,0.0553,,0.0457,0.0492,,0.0627,0.0594,0.0481,,0.0508,,0.0694,0.0765,,,,0.0729
F92Q,0.0678,0.0496,0.0656,0.0587,0.0713,,0.0777,0.0661,0.0534,0.122,0.06,0.0672,0.108,0.0796,0.0705,0.0689,,0.0641
F133S,0.0965,,,,0.047,0.0745,0.0848,,0.0925,,,,,0.0619,0.0707,,0.0214,
I84Y,0.0664,0.0629,,,0.0533,,0.0714,,0.0528,0.0599,,,,0.062,0.0686,0.047,,0.0425
S121N,0.0732,,0.0569,,0.0573,0.103,0.0914,0.0716,0.0617,0.106,0.0577,,0.132,0.0628,0.0904,0.0775,0.0538,
V210I,0.07,,,,0.0553,,,0.0382,0.0646,,,,,,,0.0755,,
R10A,0.0795,0.0585,,,0.0732,,0.0752,,,0.0999,,,,0.0587,,,0.0655,
S169L,0.0533,0.0722,,,0.062,,,0.0609,,,0.0842,,0.0597,0.0647,,0.0575,,0.0329
P14F,0.0868,0.0493,0.0704,0.0592,0.0673,0.0728,0.0626,,0.0709,,0.0755,,0.107,0.0455,0.0848,0.0701,,0.036
S201F,0.0819,0.047,0.0837,,,,,,0.0656,,,0.077,,,,,0.0736,
T55P,0.0729,0.0372,0.0643,0.0723,0.0498,,,0.0785,0.0644,,0.0699,0.0559,0.15,0.0653,,0.0672,,
T181D,0.0768,,0.0557,0.0461,,,,,0.0616,0.0584,0.0687,0.0637,,,0.0621,0.0542,0.0589,

# From the supplement of paper PMC12217912
